Structures are written as SMILES. This is one part of the list. Shown are side measurements of this screen, not its main read-out; they come without a call. The list favours compounds with an active or inconclusive main result.

The assay can be described thus: growth inhibition of WT strain, primary screen, mitochondrial fusion inhibitor project, WT and mutant strains, chemical genetic (AID 1362). Also: tested in S. cerevisiae. Conditions: mitochondrial fusion phenotypic screen, at 10 µM.
For orientation: inhibition means the drop in the measured response relative to a control, in per cent. For `N/C(=N\OC(=O)N1c2ccccc2Sc2ccccc21)c1ccccc1`, the inhibition is 33.3%.

On to `CC(=O)C(Sc1ncnc2sc3c(c12)CCCC3)C(C)=O`, for which the inhibition came out at 72.5%.

Turning to `Cc1cccc(C)c1NC(=S)NC1CCCCC1`, the inhibition was 30%.

Regarding `CCCCCC(C)NC(=O)c1ccoc1C` (centres undefined), the inhibition turned out to be 74.9%.

As for `COCCNC(=S)N(CCc1c(C)[nH]c2ccc(Cl)cc12)Cc1cccs1`, the inhibition was determined as 19.8%.

On to `CCOC(=O)CC(=O)CSc1nc(C)nc2c1oc1ccccc12`, for which the inhibition is 1.34%.

With `OC(CNCCC(c1ccccc1)c1ccccc1)COc1ccccc1` (centres undefined), the inhibition amounted to 56.5%.

With `CC(=O)c1ccc(NC(=O)Nc2cccc(Cl)c2)cc1`, the inhibition worked out at 43.7%.

As for `CC(C)(C)C1CCc2sc(-c3nnc(CCl)o3)cc2C1` (centres undefined), the inhibition is 27%.

As for `Cc1ccc(N2C(=N)/C(=C3/Nc4ccccc4S3)C(c3ccccc3)C2=O)cc1` (centres undefined), the inhibition was 67.5%.

Consider `Cc1ccc(C)c(SCC(=O)Nc2nnc(-c3ccccc3)o2)c1`, for which the inhibition was 64.4%.

`C/C(=C\C(=S)Nc1ccccc1)Nc1ccc2ccccc2c1`: the inhibition is 16.5%.

As to `Cc1ccc(C2CN(C)C3(C(=O)Nc4ccccc43)C23COc2ccccc2C3=O)cc1` (centres undefined), the inhibition was 21.8%.

As for `Cc1c(C)n(Cc2ccccc2)c2ccc(C(=O)OCCCN(C)C)cc12`, the inhibition came out at 85.5%.

In the case of `Cc1c(Cl)cccc1NC(=S)NCCC(c1ccccc1)c1ccccc1`, the inhibition was 55.7%.

In the case of `CC1CN(c2cc(-c3ccccc3)c3ccccc3n2)CC(C)O1` (centres undefined), the inhibition came out at 33.8%.

As to `O=C(NC(Cc1c[nH]c2ccccc12)C(=O)Nc1ccc(OC(F)(F)F)cc1)c1cccs1` (centres undefined), the inhibition turned out to be 12.8%.

For the compound `CCC1C/C(=C\c2cccnc2)C(=O)/C(=C/c2cccnc2)C1` (centres undefined), the inhibition came to 48.9%.

For `CCN1CCN(CCNC(=O)c2ccc3c(c2)N(Cc2ccc(F)cc2)C(=O)/C(=C/c2ccccc2)S3)CC1`, the inhibition stood at 57.6%.

For the compound `COc1cc2c(cc1NC(=S)Nc1cccc3ccccc13)oc1ccccc12`, the inhibition stood at 44.5%.

As for `Cc1ccc(OCCCCNC2CCCC(C)C2C)c(C)c1` (centres undefined), the inhibition is 59.8%.

Regarding `COc1ccccc1CNc1nc2nc(C)c(C)c(=O)n2[nH]1`, the inhibition came out at 5.95%.

Take `CC(C)(C)c1ccc(NC(=O)COC(=O)c2ccc([N+](=O)[O-])s2)cc1`: the inhibition amounted to 89.3%.

As for `CC(C)N1C2OC(C3OC4C(O3)N(C(C)C)S(=O)(=O)N4C(C)C)OC2N(C(C)C)S1(=O)=O` (centres undefined), the inhibition stood at 39.9%.

Consider `COc1ccccc1Cn1c(/C=C/c2ccccc2)nc2ccccc21`, for which the inhibition is 22.7%.

Regarding `Cc1ccc(Cn2ncc3c(N4CCN(Cc5ccc(Cl)cc5)CC4)ncnc32)cc1`, the inhibition stood at 42.4%.

Consider `CC(C)c1ccc(/C=C/C(=O)NCCCc2ccccc2)cc1`, for which the inhibition turned out to be 41.8%.

`C[C@H]1COC2=C1C(=O)C(=O)c1c2ccc2c1CCCC2(C)C`: the inhibition was 60.3%.

Take `O=[N+]([O-])c1cc(C(F)(F)F)ccc1NCCc1c[nH]c2ccccc12`: the inhibition was determined as 9.5%.

For `Cc1ccc(C)c(C(=O)COC(=O)c2cc([N+](=O)[O-])ccc2NCCO)c1`, the inhibition amounted to 1.94%.

In the case of `O=c1c2c(nc(NCCO)n1CC1CCCCC1)-c1ccccc1CC21CCCC1`, the inhibition worked out at 31.2%.

With `O=C1C=C(Nc2ccccc2)c2ccccc2C1=O`, the inhibition turned out to be 71.9%.

For the compound `Clc1cccc(Cl)c1Cn1cnc2c(N3CCCCCC3)ncnc21`, the inhibition was 43.4%.

For the compound `CCCCC1CCC(c2nc(-c3cccnc3)no2)CC1` (centres undefined), the inhibition was 53.6%.

In the case of `O=C(CSc1nc2ccccc2[nH]1)Nc1nc(-c2cccc(Br)c2)cs1`, the inhibition was 64%.

In the case of `O=S(=O)(c1ccccc1)N1N=C(c2ccccc2)CC1c1ccccc1` (centres undefined), the inhibition amounted to 58.6%.

Turning to `CC1CCc2sc3nc(NCc4ccco4)n4ncnc4c3c2C1` (centres undefined), the inhibition amounted to 79.5%.

`O=C(N=Nc1c(O)[nH]c2ccc(Br)cc12)c1ccccc1-n1cccc1`: the inhibition was 43%.

On to `CC1CC2(CCCC2)N(C(=O)c2ccccc2)Cc2ccccc21` (centres undefined), for which the inhibition worked out at 17.6%.

For `O=C(O)c1cccc(N/N=C/C2=C(Cl)c3cc(Cl)ccc3SC2)c1`, the inhibition is 93.4%.

Regarding `On1c2c(c3c4nonc4ccc31)CCCC2`, the inhibition amounted to 57.1%.

In the case of `CCCCNC(=S)Nc1ccccc1Cc1ccccc1`, the inhibition came to 57.7%.

In the case of `Cc1onc(-c2ccccc2Cl)c1C(=O)Nc1nnc(-c2cccc([N+](=O)[O-])c2)s1`, the inhibition is 14.8%.

In the case of `C=CCOC(=O)C1=C[C@@H](c2coc3ccccc3c2=O)C[C@@H](OCc2ccc(CO)cc2)O1`, the inhibition was found to be 33.3%.

Consider `CCCCCCC1CCC(c2nc(-c3ccncc3)no2)CC1` (centres undefined), for which the inhibition was determined as 59%.

As for `Cc1ccc(NC(=S)NCc2ccc3c(c2)OCO3)cc1C`, the inhibition came to 53.9%.

On to `Fc1ccc(Sc2ccccc2CNC2=NCCN2)cc1`, for which the inhibition was 60.3%.

On to `COc1ccc(/C=C2\SC(N3CCc4ccccc4C3)=NC2=O)cc1`, for which the inhibition is 13.1%.

Consider `CC1CCN(c2nc(CN3CCCCC3)nc3scc(-c4ccccc4)c23)CC1`, for which the inhibition was 26.5%.

`O=C1NCN(c2ccccc2)C12CCN(CCCC(c1ccc(F)cc1)c1ccc(F)cc1)CC2`: the inhibition was 36.9%.

Consider `N#CC(C#N)=C1C=CC=CN1/C(=C\c1ccccc1Cl)C(=O)c1ccccc1`, for which the inhibition was -8.32%.

In the case of `N=c1c(C(=O)NCc2ccco2)cc2c(=O)n3ccccc3nc2n1Cc1ccc(Cl)cc1`, the inhibition is 8.14%.

As to `COc1ccc(/C=C/c2cc(-c3ccc(C)cc3)o[n+]2C)cc1`, the inhibition was 46.6%.

With `Clc1ccc(-c2cc3ccccc3nc2N2CCCC2)cc1`, the inhibition worked out at 66%.

For the compound `CCN(CC)CCCn1c(C)cc2c(c1=O)C(c1cccc(Cl)c1)C(C#N)=C(N)O2` (centres undefined), the inhibition was 1.78%.

For `CCCCCc1ccc(OCCOCCn2c[n+](C)c3ccccc32)c(CCCCC)c1`, the inhibition is 92.6%.

Take `CC(CC(=O)Nc1ccc(Cl)c([N+](=O)[O-])c1)c1ccccc1` (centres undefined): the inhibition was determined as 68.3%.

`C#CC[N+](C)(C)CCCCCCCCCCCC`: the inhibition worked out at 73.8%.

On to `O=C(c1ccccn1)N1N=C2/C(=C/c3ccc(F)cc3)CCCC2C1c1ccc(F)cc1` (centres undefined), for which the inhibition turned out to be 17.9%.

In the case of `CC(C)c1ccc(S(=O)(=O)c2ccc(NN)cc2)cc1`, the inhibition was found to be 41.2%.

As for `Cc1ccc(CN2CCN(/N=C/c3ccc(C(F)(F)F)cc3)CC2)c(C)c1`, the inhibition was found to be 20.3%.

Take `Cc1ccc(Oc2nc(CN3CCOCC3)nc3sc4c(c23)CCC(C)C4)cc1` (centres undefined): the inhibition came to 43.2%.

Consider `CC(C)c1nc(N2CCN(C(=O)c3ccco3)CC2)c2c3c(sc2n1)CCCC3`, for which the inhibition is 55.7%.

In the case of `COc1ccccc1-n1c(SCC(=O)c2ccc(O)cc2O)nc2cc([N+](=O)[O-])ccc21`, the inhibition was -15%.

`CC(=O)N1c2ccc3ccccc3c2C(C)CC12CCCCC2` (centres undefined): the inhibition stood at 51.7%.

On to `Cn1c(SCc2c(F)cccc2Cl)nc2c(c1=O)SCC2`, for which the inhibition stood at 48.9%.

`Cc1ccc(C)c(N2CCN(C(=O)C3CCN(c4nc(C)cc(C)n4)CC3)CC2)c1`: the inhibition is 17.8%.

For the compound `Clc1ccc(-c2nnc(NCc3ccccc3)c3ccccc23)cc1`, the inhibition is 62.7%.

`O=C(Nc1ccc(Br)cc1)c1cccn1-c1ncc(C(F)(F)F)cc1Cl`: the inhibition is 31.4%.
